# Reference: the supplement of paper PMC8728848
# The list shows a part of the results.
# B1: Apa (Mycobacterium tuberculosis), Rv1860 (protein)
# chain: MHQVDPNLTRRKGRLAALAIAAMASASLVTVAVPATANADPEPAPPVPTTAASPPSTAAAPPAPATPVAPPPPAAANTPNAQPGDPNAAPPPADPNAPPPPVIAPNAPQPVRIDNPVGGFSFALPAGWVESDAAHFDYGSALLSKTTGDPPFPGQPPPVANDTRIVLGRLDQKLYASAEATDSKAAARLGSDMGEFYMPYPGTRINQETVSLDANGVSGSASYYEVKFSDPSKPNGQIWTGVIGSPAANAPDAGPPQRWFVVWLGTANNPVDKGAAKALAESIRPLVAPPPAPAPAPAEPAPAPAPAGEVAPTPTTPTPQRTLPA
# Columns and labels:
# Assay in all cases: glycan array binding signal (z-score within array); higher = stronger binding
# Settings in all cases: glycan notation: IUPAC condensed, linker removed
# [1] = biological target: Neu5Ac(a2-6)GlcNAc(b1-4)GlcNAc
# How it was run: (§1)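 The Consortium for Functional Glycomics database supplied 3228 glycan arrays, of which those lacking an available protein sequence were dropped. The binding signal, a within-array Z-score, was averaged across arrays of the same protein sequence and across linkers. Negative scores can be read as non-binding.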
# [2] = biological target: Neu5Ac(a2-6)GlcNAc(b1-4)GlcNAc(b1-4)GlcNAc
# How it was run: as §1
# Neu5Ac(a2-8)Neu5Ac = biological target: Neu5Ac(a2-8)Neu5Ac
# How it was run: as §1
# [3] = biological target: Neu5Ac(a2-8)Neu5Ac(a2-3)Gal(b1-3)GalNAc(b1-4)[Neu5Ac(a2-3)]Gal(b1-4)Glc
# How it was run: as §1
# [4] = biological target: Neu5Ac(a2-8)Neu5Ac(a2-3)Gal(b1-3)GalNAc(b1-4)[Neu5Ac(a2-8)Neu5Ac(a2-3)]Gal(b1-4)Glc
# How it was run: as §1
# [5] = biological target: Neu5Ac(a2-8)Neu5Ac(a2-3)Gal(b1-4)Glc
# How it was run: as §1
# [6] = biological target: Neu5Ac(a2-8)Neu5Ac(a2-3)Gal(b1-4)GlcNAc
# How it was run: as §1
# [7] = biological target: Neu5Ac(a2-8)Neu5Ac(a2-3)[Gal(b1-3)GalNAc(b1-4)]Gal(b1-4)Glc
# How it was run: as §1
# [8] = biological target: Neu5Ac(a2-8)Neu5Ac(a2-3)[GalNAc(b1-4)]Gal(b1-4)Glc
# How it was run: as §1
# [9] = biological target: Neu5Ac(a2-8)Neu5Ac(a2-8)Neu5Ac
# How it was run: as §1
# [10] = biological target: Neu5Ac(a2-8)Neu5Ac(a2-8)Neu5Ac(a2-3)Gal(b1-4)Glc
# How it was run: as §1
# [11] = biological target: Neu5Ac(a2-8)Neu5Ac(a2-8)Neu5Ac(a2-3)[Gal(b1-3)GalNAc(b1-4)]Gal(b1-4)Glc
# How it was run: as §1
# [12] = biological target: Neu5Ac(a2-8)Neu5Ac(a2-8)Neu5Ac(a2-3)[GalNAc(b1-4)]Gal(b1-4)Glc
# How it was run: as §1
# [13] = biological target: Neu5Ac(a2-8)Neu5Ac(a2-8)Neu5Ac(a2-8)Neu5Ac(a2-3)[GalNAc(b1-4)]Gal(b1-4)Glc
# How it was run: as §1
# [14] = biological target: Neu5Ac(a2-8)Neu5Gc(a2-3)Gal(b1-4)GlcNAc
# How it was run: as §1
# [15] = biological target: Neu5Ac(b2-6)Gal(b1-4)GlcNAc
# How it was run: as §1
# Neu5Ac(b2-6)GalNAc = biological target: Neu5Ac(b2-6)GalNAc
# How it was run: as §1
# [16] = biological target: Neu5Ac9Ac(a2-3)Gal(b1-3)GlcNAc
# How it was run: as §1
# [17] = biological target: Neu5Ac9Ac(a2-3)Gal(b1-4)GlcNAc
# How it was run: as §1
# [18] = biological target: Neu5Ac9Ac(a2-6)Gal(b1-4)GlcNAc
# How it was run: as §1
# [19] = biological target: Neu5Gc(a2-3)Gal(b1-3)GlcNAc
# How it was run: as §1
# [20] = biological target: Neu5Gc(a2-3)Gal(b1-3)[Fuc(a1-4)]GlcNAc
# How it was run: as §1
# Neu5Gc(a2-3)Gal(b1-4)Glc = biological target: Neu5Gc(a2-3)Gal(b1-4)Glc
# How it was run: as §1
# [21] = biological target: Neu5Gc(a2-3)Gal(b1-4)GlcNAc
# How it was run: as §1
# [22] = biological target: Neu5Gc(a2-3)Gal(b1-4)GlcNAc(b1-3)Gal(b1-4)GlcNAc(b1-2)Man(a1-3)[Neu5Gc(a2-3)Gal(b1-4)GlcNAc(b1-3)Gal(b1-4)GlcNAc(b1-2)Man(a1-6)]Man(b1-4)GlcNAc(b1-4)GlcNAc
# How it was run: as §1
# [23] = biological target: Neu5Gc(a2-3)Gal(b1-4)[Fuc(a1-3)]GlcNAc
# How it was run: as §1
# [24] = biological target: Neu5Gc(a2-6)Gal(b1-4)GlcNAc
# How it was run: as §1
# Neu5Gc(a2-6)GalNAc = biological target: Neu5Gc(a2-6)GalNAc
# How it was run: as §1
# [25] = biological target: Neu5Gc(a2-8)Neu5Ac(a2-3)Gal(b1-4)GlcNAc
# How it was run: as §1
# [26] = biological target: Neu5Gc(a2-8)Neu5Gc(a2-3)Gal(b1-4)GlcNAc
# How it was run: as §1
# [27] = biological target: Neu5Gc(a2-8)Neu5Gc(a2-3)Gal(b1-4)GlcNAc(b1-3)Gal(b1-4)GlcNAc
# How it was run: as §1
# [28] = biological target: Neu5Gc(a2-8)Neu5Gc(a2-6)Gal(b1-4)GlcNAc
# How it was run: as §1
# [29] = biological target: Neu5Gc(b2-6)Gal(b1-4)GlcNAc
# How it was run: as §1
binder,measurement,setting,value
B1,glycan array binding signal (z-score),[1],-0.224
same,glycan array binding signal (z-score),[2],-0.326
same,glycan array binding signal (z-score),Neu5Ac(a2-8)Neu5Ac,-0.002
same,glycan array binding signal (z-score),[3],-0.537
same,glycan array binding signal (z-score),[4],-0.196
same,glycan array binding signal (z-score),[5],-0.474
same,glycan array binding signal (z-score),[6],-0.359
same,glycan array binding signal (z-score),[7],0.084
same,glycan array binding signal (z-score),[8],-0.159
same,glycan array binding signal (z-score),[9],-0.371
same,glycan array binding signal (z-score),[10],-0.162
same,glycan array binding signal (z-score),[11],-0.168
same,glycan array binding signal (z-score),[12],-0.293
same,glycan array binding signal (z-score),[13],-0.27
same,glycan array binding signal (z-score),[14],-0.512
same,glycan array binding signal (z-score),[15],-0.049
same,glycan array binding signal (z-score),Neu5Ac(b2-6)GalNAc,-0.414
same,glycan array binding signal (z-score),[16],-0.592
same,glycan array binding signal (z-score),[17],-0.65
same,glycan array binding signal (z-score),[18],-0.196
same,glycan array binding signal (z-score),[19],-0.229
same,glycan array binding signal (z-score),[20],-0.3
same,glycan array binding signal (z-score),Neu5Gc(a2-3)Gal(b1-4)Glc,-0.297
same,glycan array binding signal (z-score),[21],-0.451
same,glycan array binding signal (z-score),[22],-0.057
same,glycan array binding signal (z-score),[23],-0.302
same,glycan array binding signal (z-score),[24],-0.159
same,glycan array binding signal (z-score),Neu5Gc(a2-6)GalNAc,-0.641
same,glycan array binding signal (z-score),[25],0.187
same,glycan array binding signal (z-score),[26],-0.072
same,glycan array binding signal (z-score),[27],-0.408
same,glycan array binding signal (z-score),[28],0.532
same,glycan array binding signal (z-score),[29],-0.341
